The other results are listed elsewhere or left out. Rule as the data show it: active = 3.2 or more and inactive = the rest. Only a few entries rise above the background.
Experiments:
Assay in all cases: enrichment score (SH2-bound / input frequency) (ratio); bacterial display of known human phosphotyrosine sites (pTyr-Var adds point mutants) read by sequencing; higher = stronger binding; tyrosines were phosphorylated by kinases first
Conditions in all cases: peptide library: pTyr-Var
SHP2 C-SH2 domain E139D = target: SHP2 C-SH2 domain E139D
[1] = target: SHP2 C-SH2 domain wild-type
SHP2 N-SH2 domain L43F = target: SHP2 N-SH2 domain L43F
SHP2 N-SH2 domain T42A = target: SHP2 N-SH2 domain T42A
SHP2 N-SH2 domain T52S = target: SHP2 N-SH2 domain T52S
[2] = target: SHP2 N-SH2 domain wild-type
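Also: displayed peptides selected on beads carrying the immobilized SH2 domain, with library peptides lacking any tyrosine serving as negative controls.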

Binder	enrichment score (SHP2 C-SH2 domain E139D)	enrichment score [1]	enrichment score (SHP2 N-SH2 domain L43F)	enrichment score (SHP2 N-SH2 domain T42A)	enrichment score (SHP2 N-SH2 domain T52S)	enrichment score [2]
VGQRPYRPLPE [REEP3_Y170_Q171R]	inactive: 0.916	inactive: 0.743	inactive: 0.868	inactive: 0.579	inactive: 0.715	inactive: 0.815
IYRASYVPFAA [RBM47_Y541_G538R]	inactive: 0.751	inactive: 0.749	inactive: 0.824	inactive: 0.785	inactive: 0.882	inactive: 0.873
RTLSEYARPHV [RERE_Y1259]	inactive: 0.961	inactive: 0.862	inactive: 0.87	inactive: 0.939	inactive: 0.757	inactive: 1.09
IENKLYGTSDP [RET_Y1062_M1064T]	inactive: 0.658	inactive: 0.682	inactive: 0.785	inactive: 0.612	inactive: 0.772	inactive: 0.651
KNITEYCRHLI [RECQL_Y492_D495H]	inactive: 0.991	inactive: 1.07	inactive: 0.995	inactive: 0.834	inactive: 1.03	inactive: 1.11
RGRDSYGGPPR [RBMX_Y190]	inactive: 0.316	inactive: 0.281	inactive: 0.342	inactive: 0.427	inactive: 0.315	inactive: 0.31
GGRKGYGGFSR [RECQL5_Y478_D480G]	inactive: 0.291	inactive: 0.27	inactive: 0.367	inactive: 0.405	inactive: 0.383	inactive: 0.337
FRDMDYRSFPR [RBM10_Y41_YF]	inactive: 0.86	inactive: 0.749	inactive: 0.767	inactive: 0.641	inactive: 0.878	inactive: 0.801
GDFSRYDEGSG [RECQL5_Y484]	inactive: 0.483	inactive: 0.474	inactive: 0.401	inactive: 0.44	inactive: 0.556	inactive: 0.621
SFPHEYGSQEG [RBM10_Y48_R46H_YF]	inactive: 0.862	inactive: 0.56	inactive: 0.507	inactive: 0.63	inactive: 0.761	inactive: 0.447
FYRKVYHLASV [RBL1_Y796]	inactive: 1.02	inactive: 0.799	inactive: 0.782	inactive: 0.628	inactive: 0.839	inactive: 1.03
STSKTYVISQT [RBBP6_Y87_R91Q]	inactive: 0.818	inactive: 0.688	inactive: 0.733	inactive: 0.632	inactive: 0.639	inactive: 0.771
HVIKLFGACSQ [RET_Y791_Y791F]	inactive: 0.89	inactive: 0.876	inactive: 0.647	inactive: 0.823	inactive: 0.797	inactive: 0.93
PRSRSYFSTSI [REPS2_Y462_S463F]	inactive: 0.566	inactive: 0.377	inactive: 0.443	inactive: 0.478	inactive: 0.565	inactive: 0.507
HVIKFYGACSQ [RET_Y791_L790F]	inactive: 1.11	inactive: 1.01	inactive: 0.77	inactive: 0.937	inactive: 0.869	inactive: 1.08
PGGKIYISPLK [RB1_Y805_N803K]	inactive: 1.39	inactive: 2.28	inactive: 1.5	inactive: 1.16	inactive: 1.27	inactive: 1.55
VVTFSYKPAGN [RBL2_Y544_P547A]	inactive: 1.4	inactive: 1.57	inactive: 1.84	inactive: 2.1	inactive: 1.83	inactive: 1.32
YRDMDYRSYPR [RBM10_Y41]	inactive: 0.862	inactive: 0.743	inactive: 0.724	inactive: 0.744	inactive: 0.822	inactive: 0.944
SYPREYGSQEG [RBM10_Y48]	inactive: 0.522	inactive: 0.528	inactive: 0.538	inactive: 0.443	inactive: 0.514	inactive: 0.692

Binder	enrichment score (SHP2 C-SH2 domain E139D)	enrichment score [1]	enrichment score (SHP2 N-SH2 domain L43F)	enrichment score (SHP2 N-SH2 domain T42A)	enrichment score (SHP2 N-SH2 domain T52S)	enrichment score [2]
PRSRSYSSTSI [REPS2_Y462]	inactive: 0.805	inactive: 0.249	inactive: 0.137	inactive: 0.299	inactive: 0.218	inactive: 0.258
YRDMDYRSYPH [RBM10_Y41_R46H]	inactive: 0.953	inactive: 0.728	inactive: 0.784	inactive: 0.583	inactive: 0.68	inactive: 0.687
IENKLYGMSDP [RET_Y1062]	inactive: 2.82	inactive: 0.903	inactive: 0.802	inactive: 0.836	inactive: 0.816	inactive: 0.95
SLALFYRNVFH [RBL1_Y792_K794N_YF]	inactive: 0.49	inactive: 0.436	inactive: 0.439	inactive: 0.396	inactive: 0.463	inactive: 0.609
KNITEYCRDLI [RECQL_Y492]	inactive: 1.21	inactive: 1.43	inactive: 1.31	inactive: 1.12	inactive: 1.27	inactive: 1.1
VGQRPYQPLPE [REEP3_Y170]	inactive: 0.699	inactive: 0.67	inactive: 0.685	inactive: 0.598	inactive: 0.617	inactive: 0.764
GVRLYYRVRES [RB1_Y454_M457R]	inactive: 0.239	inactive: 0.283	inactive: 0.206	inactive: 0.276	inactive: 0.267	inactive: 0.196
LLIVEYAKYGS [RET_Y806]	active: 3.24	inactive: 2.4	inactive: 3.05	inactive: 2.41	inactive: 2.74	inactive: 2
MDFRSYPREFG [RBM10_Y44_YF]	inactive: 0.733	inactive: 0.735	inactive: 0.852	inactive: 0.665	inactive: 0.729	inactive: 0.648
GVRLFYRVMES [RB1_Y454_YF]	inactive: 1.12	inactive: 1.04	inactive: 0.962	inactive: 0.848	inactive: 0.893	inactive: 1.11
TNITEYCRDLI [RECQL_Y492_K487T]	inactive: 1.3	inactive: 1.35	inactive: 1.18	inactive: 1.18	inactive: 1.21	inactive: 1.61
ADRTRYSAFGG [RBM4_Y361_A359T]	inactive: 0.65	inactive: 0.579	inactive: 0.535	inactive: 0.484	inactive: 0.575	inactive: 0.759
GGRKGYGDFSR [RECQL5_Y478]	inactive: 0.629	inactive: 0.55	inactive: 0.558	inactive: 0.609	inactive: 0.683	inactive: 0.75
HVIKLYGACSQ [RET_Y791]	inactive: 0.663	inactive: 1.01	inactive: 0.911	inactive: 0.752	inactive: 0.785	inactive: 0.905
STSKTYVISRT [RBBP6_Y87]	inactive: 0.523	inactive: 0.43	inactive: 0.54	inactive: 0.494	inactive: 0.509	inactive: 0.627
HDRGNYVQLNM [RECQL4_Y353_R355Q]	inactive: 1.04	inactive: 1.38	inactive: 1.97	active: 4.75	inactive: 2.26	inactive: 1.3
KGTAGYTTVAV [RET_Y752_R749T]	inactive: 0.696	inactive: 1.07	inactive: 0.871	inactive: 1.73	inactive: 1.07	inactive: 0.807
MDYRSYPHEYG [RBM10_Y44_R46H]	inactive: 0.743	inactive: 0.6	inactive: 0.682	inactive: 0.58	inactive: 0.587	inactive: 0.565
